{"source": "the supplement of paper PMC4604168 (melanoma cell lines)", "note": "This is one part of the list. Repeats are few or missing, and single values can be far off.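 Also: cell number obtained by counting DAPI-stained nuclei in high-throughput microscope images with image analysis software, screen run in 1,536-well plates.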", "data": [{"system": "WM115", "test": "cell count relative to DMSO control; melanoma cells; higher = more viable cells", "settings": "library dose: low library concentration; 72 h", "units": {"cell count": "%"}, "values": [{"smiles": "O=C(Nc1ccccc1)c1cc([N+](=O)[O-])ccc1Cl", "note": "+ N#Cc1c(O)c2c(-c3ccc(-c4ccccc4O)cc3)csc2[nH]c1=O [A769662] (first compound 2 µM, partner dose 2 µM)", "cell count": 95.8}, {"smiles": "Cc1cc(N2CCOCC2)cc2[nH]c(-c3c(NC[C@@H](O)c4cccc(Cl)c4)cc[nH]c3=O)nc12", "note": "+ COc1ccc2c(c1)CCC1C2CCC2(C)C(NCCCCCCN3C(=O)C=CC3=O)CCC12 [U73122] (first compound 0.2 µM, partner dose 0.4 µM)", "cell count": 106}, {"smiles": "O=C(O)c1ccc2c(c1)nc(Nc1cccc(Cl)c1)c1ccncc12", "note": "+ c1cc(-c2cnn3cc(-c4ccc(OCCN5CCCCC5)cc4)cnc23)ccn1 [Dorsomorphin] (first compound 0.4 µM, partner dose 0.4 µM)", "cell count": 96.6}, {"smiles": "O=C(Nc1cc(C(F)(F)F)cc(C(F)(F)F)c1)c1cc(Cl)ccc1O", "note": "+ CCN(CC)CCNC(=O)c1c(C)[nH]c(/C=C2\\C(=O)Nc3ccc(F)cc32)c1C [sunitinib] (first compound 0.016 µM, partner dose 0.4 µM)", "cell count": 126}, {"smiles": "Cc1cc(N2CCOCC2)cc2[nH]c(-c3c(NC[C@@H](O)c4cccc(Cl)c4)cc[nH]c3=O)nc12", "note": "+ COc1cc2ncnc(Nc3ccc(Oc4ccccc4)cc3)c2cc1OC [SrcI1] (first compound 0.2 µM, partner dose 2 µM)", "cell count": 112}, {"smiles": "O=C(Nc1ccccc1)c1cc([N+](=O)[O-])ccc1Cl", "note": "+ COc1cc(N2CCC(N3CCN(C)CC3)CC2)ccc1Nc1ncc(Cl)c(Nc2ccccc2S(=O)(=O)C(C)C)n1 [NVP-TAE684] (first compound 2 µM, partner dose 0.08 µM)", "cell count": 98.4}, {"smiles": "O=C(Nc1cc(C(F)(F)F)cc(C(F)(F)F)c1)c1cc(Cl)ccc1O", "note": "+ NC(=O)Nc1cc(-c2cccc(F)c2)sc1C(=O)N[C@H]1CCCNC1 [AZD7762] (first compound 0.016 µM, partner dose 0.02 µM)", "cell count": 94.6}, {"smiles": "Cn1nnc2c(C(N)=O)ncn2c1=O", "note": "[temozolomide] + O=C(Nc1cccc(Cl)c1)Nc1ncc(CCNc2ncnc3ccsc23)s1 [SNS314] (first compound 2 µM, partner dose 0.0008 µM)", "cell count": 85.2}, {"smiles": "O=C(O)c1ccc2c(c1)nc(Nc1cccc(Cl)c1)c1ccncc12", "note": "+ O=C(O)c1ccc(-c2c[nH]c3ncc(-c4ccccc4)cc23)cc1C1CCCC1 [GSK650394] (first compound 0.4 µM, partner dose 0.16 µM)", "cell count": 93.3}, {"smiles": "O=C(Nc1cc(C(F)(F)F)cc(C(F)(F)F)c1)c1cc(Cl)ccc1O", "note": "+ OCc1c[nH]c2ccccc12 [Indole-3-carbinol] (first compound 0.016 µM, partner dose 0.8 µM)", "cell count": 90.5}, {"smiles": "O=C(O)[C@@H]1[O][Sb](=[O])([O][Sb]2(=[O])[O][C@H]([C@H](O)CO)[C@H](O)[C@H](C(=O)O)[O]2)[O][C@H]([C@H](O)CO)[C@@H]1O", "note": "(stereo not given in full) [stibogluconate] + C[C@]1(c2nc3c(C(N)=O)cccc3[nH]2)CCCN1 [Veliparib] (first compound 2 µM, partner dose 1.4 µM)", "cell count": 95.7}, {"smiles": "O=C(Nc1cc(C(F)(F)F)cc(C(F)(F)F)c1)c1cc(Cl)ccc1O", "note": "+ O=C(CCCCCCC(=O)Nc1ccccc1)NO [vorinostat] (first compound 0.016 µM, partner dose 0.08 µM)", "cell count": 81.7}, {"smiles": "O=C(Nc1cc(C(F)(F)F)cc(C(F)(F)F)c1)c1cc(Cl)ccc1O", "note": "+ CC1(C)NC(=O)N(c2ccc([N+](=O)[O-])c(C(F)(F)F)c2)C1=O [nilutamide] (first compound 0.016 µM, partner dose 1 µM)", "cell count": 85.9}, {"smiles": "O=C(O)c1ccc2c(c1)nc(Nc1cccc(Cl)c1)c1ccncc12", "note": "+ OCc1c[nH]c2ccccc12 [Indole-3-carbinol] (first compound 0.4 µM, partner dose 0.8 µM)", "cell count": 98}, {"smiles": "Cn1nnc2c(C(N)=O)ncn2c1=O", "note": "[temozolomide] + COc1cc(Nc2ncc(F)c(Nc3ccc4c(n3)NC(=O)C(C)(C)O4)n2)cc(OC)c1OC [Tamatinib] (first compound 2 µM, partner dose 0.4 µM)", "cell count": 93.7}, {"smiles": "Cc1cc(N2CCOCC2)cc2[nH]c(-c3c(NC[C@@H](O)c4cccc(Cl)c4)cc[nH]c3=O)nc12", "note": "+ CCN(CC)CCCCNc1ncc2cc(-c3cc(OC)cc(OC)c3)c(NC(=O)NC(C)(C)C)nc2n1 [PD173074] (first compound 0.2 µM, partner dose 0.1 µM)", "cell count": 101}, {"smiles": "Cc1cc(N2CCOCC2)cc2[nH]c(-c3c(NC[C@@H](O)c4cccc(Cl)c4)cc[nH]c3=O)nc12", "note": "+ CCc1ccc(CCOc2ccc(CC3SC(=O)NC3=O)cc2)nc1 [pioglitazone] (first compound 0.2 µM, partner dose 2 µM)", "cell count": 96.6}, {"smiles": "O=C(O)c1ccc2c(c1)nc(Nc1cccc(Cl)c1)c1ccncc12", "note": "+ COCC[n+]1c2c(n(Cc3cnccn3)c1C)C(=O)c1ccccc1C2=O [YM155] (first compound 0.4 µM, partner dose 0.0004 µM)", "cell count": 96.9}, {"smiles": "O=C(O)[C@@H]1[O][Sb](=[O])([O][Sb]2(=[O])[O][C@H]([C@H](O)CO)[C@H](O)[C@H](C(=O)O)[O]2)[O][C@H]([C@H](O)CO)[C@@H]1O", "note": "(stereo not given in full) [stibogluconate] + CCc1ccc(CCOc2ccc(CC3SC(=O)NC3=O)cc2)nc1 [pioglitazone] (first compound 2 µM, partner dose 2 µM)", "cell count": 99.8}, {"smiles": "O=C(Nc1cc(C(F)(F)F)cc(C(F)(F)F)c1)c1cc(Cl)ccc1O", "note": "+ O=S(=O)(c1ccccc1)N(CC(F)(F)F)c1ccc(C(O)(C(F)(F)F)C(F)(F)F)cc1 [T0901317] (first compound 0.016 µM, partner dose 1.4 µM)", "cell count": 102}, {"smiles": "O=C(Nc1cc(C(F)(F)F)cc(C(F)(F)F)c1)c1cc(Cl)ccc1O", "note": "+ CCCCCCCCc1ccc(CCC(N)(CO)CO)cc1 [fingolimod] (first compound 0.016 µM, partner dose 2 µM)", "cell count": 107}, {"smiles": "O=C(Nc1cc(C(F)(F)F)cc(C(F)(F)F)c1)c1cc(Cl)ccc1O", "note": "+ O=C(Nc1cccc(Cl)c1)Nc1ncc(CCNc2ncnc3ccsc23)s1 [SNS314] (first compound 0.016 µM, partner dose 0.0008 µM)", "cell count": 82}, {"smiles": "O=C(Nc1ccccc1)c1cc([N+](=O)[O-])ccc1Cl", "note": "+ c1cc(-c2cnn3cc(-c4ccc(OCCN5CCCCC5)cc4)cnc23)ccn1 [Dorsomorphin] (first compound 2 µM, partner dose 0.4 µM)", "cell count": 88.8}, {"smiles": "O=C(O)[C@@H]1[O][Sb](=[O])([O][Sb]2(=[O])[O][C@H]([C@H](O)CO)[C@H](O)[C@H](C(=O)O)[O]2)[O][C@H]([C@H](O)CO)[C@@H]1O", "note": "(stereo not given in full) [stibogluconate] + Cn1nnc2c(C(N)=O)ncn2c1=O [temozolomide] (first compound 2 µM, partner dose 2 µM)", "cell count": 101}, {"smiles": "Cc1cc(N2CCOCC2)cc2[nH]c(-c3c(NC[C@@H](O)c4cccc(Cl)c4)cc[nH]c3=O)nc12", "note": "+ COc1ccc(COc2ccc(Cc3cnc(N)nc3N)cc2OC)cc1 [GW2580] (first compound 0.2 µM, partner dose 1 µM)", "cell count": 95.7}]}]}
